Tests used:
[1] = tested on: MDA-MB-231 cells negative for B7H4 expression; assay: In vitro proliferation inhibition of antibody-drug conjugate (CTG, 7 days); format: cell-based; details: cell left blank in the table, second cell line of the test is MDA-MB-231, 7 days
human B7-H7 (HHLA2) = biological target: T1, human B7-H7 (HHLA2) (Homo sapiens, UniProt Q9UM44); assay: Binding specificity to cells overexpressing human B7 family proteins (flow cytometry); details: CHO-KI stably expressing the protein, 100 nM or 300 nM
T1 construct: expressed in transfected cells
T1 sequence (Q9UM44 23-414): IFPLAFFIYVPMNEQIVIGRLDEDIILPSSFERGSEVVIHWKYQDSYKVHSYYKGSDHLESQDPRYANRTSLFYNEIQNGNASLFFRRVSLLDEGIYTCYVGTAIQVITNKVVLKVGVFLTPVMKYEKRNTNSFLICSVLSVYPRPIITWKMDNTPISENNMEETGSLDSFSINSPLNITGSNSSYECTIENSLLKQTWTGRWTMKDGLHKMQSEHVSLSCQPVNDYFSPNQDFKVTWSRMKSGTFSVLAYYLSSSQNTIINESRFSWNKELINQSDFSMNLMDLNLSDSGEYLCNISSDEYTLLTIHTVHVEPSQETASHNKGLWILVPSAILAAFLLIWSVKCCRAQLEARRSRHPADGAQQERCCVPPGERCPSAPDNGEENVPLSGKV

[2] = tested on: HT29-Luc2 cells that do not express B7H4; assay: Bystander killing test (Bright-Glo luciferase); format: cell-based; details: 10 nM, 7 days
[3] = tested on: human breast cancer cells MX-1 subcutaneous xenograft; assay: Pharmacodynamic evaluation in tumor-bearing mice (MX-1); format: in vivo
human B7H4 = biological target: T2, human B7H4 (Homo sapiens, UniProt Q7Z7D3); assay: Species cross-reactivity, flow cytometry binding to B7H4-transfected HEK293T cells; set-up: expressed in transfected cells; host or cells: HEK293T; details: Human B7H4-293T
T2 sequence (Q7Z7D3 25-282): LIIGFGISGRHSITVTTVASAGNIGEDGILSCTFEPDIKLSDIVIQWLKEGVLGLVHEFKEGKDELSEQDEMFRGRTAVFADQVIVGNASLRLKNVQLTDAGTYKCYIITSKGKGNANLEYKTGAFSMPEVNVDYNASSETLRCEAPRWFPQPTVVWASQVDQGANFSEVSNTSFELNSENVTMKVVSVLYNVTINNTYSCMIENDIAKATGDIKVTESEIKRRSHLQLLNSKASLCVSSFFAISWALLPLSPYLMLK

human CD276 (B7-H3) = biological target: T3, human CD276 (B7-H3) (Homo sapiens, UniProt Q5ZPR3); assay: Binding specificity to cells overexpressing human B7 family proteins (flow cytometry); details: HEK293T stably expressing the protein, 100 nM or 300 nM
T3 construct: expressed in transfected cells
T3 sequence (Q5ZPR3 29-534): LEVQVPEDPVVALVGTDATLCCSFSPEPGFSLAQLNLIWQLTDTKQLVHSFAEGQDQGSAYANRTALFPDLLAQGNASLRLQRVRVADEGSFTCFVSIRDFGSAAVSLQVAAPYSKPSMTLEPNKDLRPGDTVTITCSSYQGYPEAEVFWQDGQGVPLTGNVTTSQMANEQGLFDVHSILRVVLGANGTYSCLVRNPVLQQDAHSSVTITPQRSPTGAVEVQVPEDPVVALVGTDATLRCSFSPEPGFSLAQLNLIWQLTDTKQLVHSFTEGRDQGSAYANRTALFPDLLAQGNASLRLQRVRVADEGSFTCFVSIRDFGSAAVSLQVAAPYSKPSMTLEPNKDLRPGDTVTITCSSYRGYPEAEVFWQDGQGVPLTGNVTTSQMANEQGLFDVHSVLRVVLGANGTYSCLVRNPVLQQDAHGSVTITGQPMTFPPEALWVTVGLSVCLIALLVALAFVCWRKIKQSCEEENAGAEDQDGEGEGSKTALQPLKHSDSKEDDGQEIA

[4] = tested on: human ovarian cancer cells OVCAR-3 subcutaneous xenograft; assay: Pharmacodynamic evaluation in tumor-bearing mice (OVCAR-3); format: in vivo
[5] = tested on: human breast cancer cells MCF-7 positive for B7H4 expression, xenograft; assay: Pharmacodynamic evaluation in tumor-bearing mice (MCF-7); format: in vivo; details: MCF-7 xenograft in NCG mice, 3 mg/kg single injection, endpoint day 25
[6] = tested on: MDA-MB-468 cells subcutaneous xenograft; assay: Pharmacodynamic evaluation in MDA-MB-468 tumor-bearing mice; format: in vivo; details: for Tumor volume: mean ± standard error

B1: DB1001-X2: anti-B7H4 antibody DB1001 conjugated with linker-cytotoxin X2, DAR 5.4 (conjugate)
heavy: QVQLVESGGGVVQPGRSLRLSCAASGFTFRSFGMHWVRQAPGKGLEWVAVISYDASNEYYADSVKGRFIISRDNSKDTLYLQMNSLRAGDTAVYYCAKGGALRWYFAYWGQGTLVTVSS[in this place human IgG1 constant region]
light: EIVMTQSPATLSVSPGERATLSCRASQSISSNLGWYQQKPGQAPRLLIYGASTRATGIPARFSGSGSGTEFTLTISSLQSEDFAVYYCQQYRSWPPLTFGGGTKVEIKRTVAAPSVFIFPPSDEQLKSGTASVVCLLNNFYPREAKVQWKVDNALQSGNSQESVTEQDSKDSTYSLSSTLTLSKADYEKHKVYACEVTHQGLSSPVTKSFNRGEC
IC50 [1]: > 200 nM
binding to B7-H7 (human B7-H7 (HHLA2)): not detected
HT29-Luc2 cell viability, Separate incubation [2]: 76.8%
HT29-Luc2 cell viability, Co-incubation ([2]; co-incubated with HT29-B7H4 at 3:1): 20.3%
T/C ([3]; MX-1, day 27, 1 mg/kg): 45.83%
TGI ([3]; MX-1, day 27, 1 mg/kg): 54.17%
Tumor volume ([3]; MX-1, day 27, 1 mg/kg i.v. once every two weeks x2, mean ± standard error): 1521.41 ± 281.89 mm^3
T/C ([3]; MX-1, day 27, 3 mg/kg): 4.64%
TGI ([3]; MX-1, day 27, 3 mg/kg): 95.36%
Tumor volume ([3]; MX-1, day 27, 3 mg/kg i.v. once every two weeks x2, mean ± standard error): 154.12 ± 60.47 mm^3
MFI.Max (human B7H4): 10312
binding to B7-H3 (human CD276 (B7-H3)): not detected
T/C ([4]; OVCAR-3, day 27, 1 mg/kg): 34.15%
TGI ([4]; OVCAR-3, day 27, 1 mg/kg): 65.85%
Tumor volume ([4]; OVCAR-3, day 27, 1 mg/kg i.v. once every two weeks x2, mean ± standard error): 390.93 ± 85.40 mm^3
T/C ([4]; OVCAR-3, day 27, 3 mg/kg): 10.74%
TGI ([4]; OVCAR-3, day 27, 3 mg/kg): 89.26%
Tumor volume ([4]; OVCAR-3, day 27, 3 mg/kg i.v. once every two weeks x2, mean ± standard error): 122.94 ± 17.80 mm^3
T/C ([4]; OVCAR-3, day 27, 10 mg/kg): 4.17%
TGI ([4]; OVCAR-3, day 27, 10 mg/kg): 95.83%
Tumor volume ([4]; OVCAR-3, day 27, 10 mg/kg i.v. once every two weeks x2, mean ± standard error): 47.72 ± 7.95 mm^3
tumor inhibitory activity [5]: significant dose-dependent tumor inhibitory activity
Tumor volume ([6]; day 0, 3 mg/kg i.v. single injection): 172 ± 11 mm^3
Tumor volume ([6]; day 0, 10 mg/kg i.v. single injection): 170 ± 14 mm^3
Tumor volume ([6]; day 4, 3 mg/kg i.v. single injection): 179 ± 10 mm^3
Tumor volume ([6]; day 4, 10 mg/kg i.v. single injection): 173 ± 14 mm^3
Tumor volume ([6]; day 7, 3 mg/kg i.v. single injection): 143 ± 8 mm^3
Tumor volume ([6]; day 7, 10 mg/kg i.v. single injection): 93 ± 11 mm^3
Tumor volume ([6]; day 11, 3 mg/kg i.v. single injection): 67 ± 3 mm^3
Tumor volume ([6]; day 11, 10 mg/kg i.v. single injection): 38 ± 1 mm^3
Tumor volume ([6]; day 14, 3 mg/kg i.v. single injection): 56 ± 3 mm^3
Tumor volume ([6]; day 14, 10 mg/kg i.v. single injection): 32 ± 1 mm^3
Tumor volume ([6]; day 18, 3 mg/kg i.v. single injection): 48 ± 2 mm^3
Tumor volume ([6]; day 18, 10 mg/kg i.v. single injection): 25 ± 1 mm^3
T/C ([6]; day 21, 3 mg/kg): 13.78%
TGI ([6]; day 21, 3 mg/kg): 151.33%
Tumor volume ([6]; day 21, 3 mg/kg i.v. single injection): 55 ± 3 mm^3
T/C ([6]; day 21, 10 mg/kg): 4.97%
TGI ([6]; day 21, 10 mg/kg): 165.84%
Tumor volume ([6]; day 21, 10 mg/kg i.v. single injection): 20 ± 0 mm^3

— patent publication US20250032630A1, “B7H4 ANTIBODY-DRUG CONJUGATE AND USE THEREOF” (Duality Biologics (Suzhou) Co., Ltd., priority 2022, published 2025)
